Assay results: patent US20250270341A1 (Alector, published 2025)

T1: huCD98hc ECD Avi-His (human, UniProt P08195 105-529)
T1 construct: biotinylated on the Avi tag where captured on streptavidin; also called Human CD98-AVI-His; Human CD98hc-AVI-His
T1 sequence: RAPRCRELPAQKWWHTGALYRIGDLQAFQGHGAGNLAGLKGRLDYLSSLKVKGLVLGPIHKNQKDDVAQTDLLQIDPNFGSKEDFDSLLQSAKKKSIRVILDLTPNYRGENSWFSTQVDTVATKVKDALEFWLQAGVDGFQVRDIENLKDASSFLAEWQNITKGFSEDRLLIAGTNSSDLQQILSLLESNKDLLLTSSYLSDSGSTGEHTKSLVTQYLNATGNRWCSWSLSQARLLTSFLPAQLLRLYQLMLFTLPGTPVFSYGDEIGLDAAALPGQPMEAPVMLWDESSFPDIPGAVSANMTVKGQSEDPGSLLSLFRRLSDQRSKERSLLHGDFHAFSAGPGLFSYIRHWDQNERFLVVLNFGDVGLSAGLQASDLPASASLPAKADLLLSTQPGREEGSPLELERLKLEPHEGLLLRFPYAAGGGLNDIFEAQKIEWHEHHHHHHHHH

T2: Cyno CD98hc ECD Avi-His (cynomolgus macaque, UniProt P08195 105-529 (human entry))
T2 construct: biotinylated on the Avi tag where captured on streptavidin; also called Cyno CD98-AVI-His; Cyno CD98hc-AVI-His
T2 chain: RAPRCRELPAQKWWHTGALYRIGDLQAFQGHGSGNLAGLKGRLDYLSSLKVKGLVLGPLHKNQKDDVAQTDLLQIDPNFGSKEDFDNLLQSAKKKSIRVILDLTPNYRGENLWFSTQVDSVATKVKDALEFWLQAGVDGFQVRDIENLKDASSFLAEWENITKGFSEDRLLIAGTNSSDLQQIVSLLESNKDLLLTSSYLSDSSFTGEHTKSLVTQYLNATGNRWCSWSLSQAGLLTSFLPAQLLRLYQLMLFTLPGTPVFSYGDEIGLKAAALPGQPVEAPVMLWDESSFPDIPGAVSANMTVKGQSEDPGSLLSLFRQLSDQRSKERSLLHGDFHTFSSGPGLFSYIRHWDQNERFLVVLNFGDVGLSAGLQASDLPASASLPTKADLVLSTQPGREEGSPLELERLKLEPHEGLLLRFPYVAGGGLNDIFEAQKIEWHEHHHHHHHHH


Key:
huCD98hc ECD Avi-His = molecular target: T1, huCD98hc ECD Avi-His; experiment: SPR, Carterra LSA, antibody immobilized
Procedure: (§1) Binding kinetics of 2+1 anti-CD98hc bispecific antibodies (from the hybridoma campaigns) to human and cyno CD98hc Avi-His were evaluated using a Carterra LSA instrument (Carterra, Salt Lake City, UT). The 2+1 anti-CD98hc bispecific antibodies were prepared in duplicates by diluting 50-fold into 10 mM Acetate, pH 5.0 (Carterra) to give final concentration of 20 μg/mL. An HC200M sensor chip (Carterra) was activated using the single channel flow cell with a 7-minute injection of a 1:1:1 mixture of 100 mM MES pH 5.5, 100 mM sulfo-NHS, 400 mM EDC (all reconstituted in MES pH 5.5; 100 μl of each mixed in vial immediately before running assay). After switching to the multi-channel array flow cell, the antibodies were injected over the activated chip in four 96-spot arrays for 15 minutes each. The remaining unconjugated active groups on the chip were then blocked by injecting 1M Ethanolamine pH 8.5 (Carterra) for 7 minutes using the single channel flow cell. The resulting sensor chip contained eight spots for each antibody, at four different densities. Two independent experiments were performed as follows, resulting in an N of between one and eight determinations for each antibody. Spots that yielded less than 20 RU of analyte binding were excluded from further analysis.
(§2) After priming with running buffer HBS-EP+ (Teknova) with 0.5 mg/ml BSA (MP Biomedicals), the immobilized 2+1 anti-CD98hc bispecific antibodies were tested for their ability to bind to several forms of CD98hc Avi-His, including human and cyno orthologs described above. Estimates of affinity were generated by injecting each analyte over the entire antibody array using the single channel flow cell. CD98hc Avi-His analytes were diluted with running buffer, in a series of six, three-fold serial dilutions starting from 600 nM for human and cyno CD98hc Avi-His. Analytes were injected for 5 minutes, and dissociation was followed for 10 minutes. After each analyte injection, antibodies were regenerated with Pierce IgG Elution Buffer (ThermoScientific). Data were processed and analyzed using NextGenKIT high-throughput kinetics analysis software (Carterra).
(§3) The equilibrium dissociation constants (KD) were calculated from the fitted association and dissociation rate constants (k-on and k-off) for 2+1 anti-CD98hc bispecific antibodies of the present disclosure.

Cyno CD98hc ECD Avi-His = molecular target: T2, Cyno CD98hc ECD Avi-His; experiment: SPR, Carterra LSA, antibody immobilized
Procedure: as §1, §2, §3

Binder	Kd (huCD98hc ECD Avi-His) [nM]	Kd (Cyno CD98hc ECD Avi-His) [nM]
CD98hc.03.004 (2+1 bispecific antibody) (bispecific antibody) heavy 1: EVRLLESGGGLVQPGGSLRLSCAASGFTFSNYAMGWVRQAPGKGLEWVSAISGSGGSTYYADSVKGRFTTSRDDSKNALYLQMNSLRAEDTAVYYCARGGPGWYAADVWGQGTTVTVSSASTKGPSVFPLAPSSKSTSGGTAALGCLVKDYFPEPVTVSWNSGALTSGVHTFPAVLQSSGLYSLSSVVTVPSSSLGTQTYICNVNHKPSNTKVDKKV[here human IgG1 Fc with changes without letters]GGGGSGGGGSGGGGSDVQLQESGPGLVKPSQSLSLTCTVTGYSITNNYAWNWIRRFPGNKLEWMAYISYSGYTSYNPSLKSRISITRDTSKNQFFLQLNSVTTEDTATYYCTGYFYYYGGGSFDYWGQGTTLTVSSGGSEGKSSGSGSESKSTGGSQAVVTQESALTTSPGETVTLTCRSSTGAVTTSNFANWVQEKPDHLFTGLIRGSNNRAPGVPARFSGSLIGDKAALTITGARTEDEAIYFCALWYSDHWVFGGGTKLTVL heavy 2: EVRLLESGGGLVQPGGSLRLSCAASGFTFSNYAMGWVRQAPGKGLEWVSAISGSGGSTYYADSVKGRFTTSRDDSKNALYLQMNSLRAEDTAVYYCARGGPGWYAADVWGQGTTVTVSS[here human IgG1 constant region with changes without letters] light: DIQMTQSPSSLSASVGDRVTITCRASQSISSYLNWYQQKPGKAPKLLIYAASSLQSGVPSRFSGSGSGTDFTLTISSLQPEDFATYYCQQADLPAFAFGGGTKVEIKRTVAAPSVFIFPPSDEQLKSGTASVVCLLNNFYPREAKVQWKVDNALQSGNSQESVTEQDSKDSTYSLSSTLTLSKADYEKHKVYACEVTHQGLSSPVTKSFNRGEC	9.1	48
CD98hc.03.010 (2+1 bispecific antibody) (bispecific antibody) heavy 1: EVRLLESGGGLVQPGGSLRLSCAASGFTFSNYAMGWVRQAPGKGLEWVSAISGSGGSTYYADSVKGRFTTSRDDSKNALYLQMNSLRAEDTAVYYCARGGPGWYAADVWGQGTTVTVSSASTKGPSVFPLAPSSKSTSGGTAALGCLVKDYFPEPVTVSWNSGALTSGVHTFPAVLQSSGLYSLSSVVTVPSSSLGTQTYICNVNHKPSNTKVDKKV[here human IgG1 Fc with changes without letters]GGGGSGGGGSGGGGSEVQLQQSGTELVKPGASVKLSCTASGLDIKDTYLHWVKQRPEQGLEWIGKIDPANGNTKYNPKFQGKATITADTSSNTAYLQLSSLTSEDTAVHYCTTPYYSGSSYGDYWGQGTTLTVSSGGSEGKSSGSGSESKSTGGSQIVLTQSPAIMSASPGEKVTLTCSASSSVSSSYLYWYQQKPGSSPKLWIYSTSNLASGVPARFSGSGSGTSYSLTISSMEAEDAASYFCHQWSRYPLTFGAGTKLELK heavy 2: EVRLLESGGGLVQPGGSLRLSCAASGFTFSNYAMGWVRQAPGKGLEWVSAISGSGGSTYYADSVKGRFTTSRDDSKNALYLQMNSLRAEDTAVYYCARGGPGWYAADVWGQGTTVTVSS[here human IgG1 constant region with changes without letters] light: DIQMTQSPSSLSASVGDRVTITCRASQSISSYLNWYQQKPGKAPKLLIYAASSLQSGVPSRFSGSGSGTDFTLTISSLQPEDFATYYCQQADLPAFAFGGGTKVEIKRTVAAPSVFIFPPSDEQLKSGTASVVCLLNNFYPREAKVQWKVDNALQSGNSQESVTEQDSKDSTYSLSSTLTLSKADYEKHKVYACEVTHQGLSSPVTKSFNRGEC	41	80

The remaining binders from weak to strong by Kd (huCD98hc ECD Avi-His), led by results:

Kd (huCD98hc ECD Avi-His) [nM]	Kd (Cyno CD98hc ECD Avi-His) [nM]	Binder
68	150	CD98hc.03.031 (2+1 bispecific antibody) (bispecific antibody) heavy 1: EVRLLESGGGLVQPGGSLRLSCAASGFTFSNYAMGWVRQAPGKGLEWVSAISGSGGSTYYADSVKGRFTTSRDDSKNALYLQMNSLRAEDTAVYYCARGGPGWYAADVWGQGTTVTVSSASTKGPSVFPLAPSSKSTSGGTAALGCLVKDYFPEPVTVSWNSGALTSGVHTFPAVLQSSGLYSLSSVVTVPSSSLGTQTYICNVNHKPSNTKVDKKV[here human IgG1 Fc with changes without letters]GGGGSGGGGSGGGGSQVQLQQSGAELVRPGVSVKISCKASGYTFTDYAMHWVKQSHAKSLEWIGVISTYYGDTTYNQKFKDKATMTVDKSSSTAYLELARLTSEDSAIYYCARVWLLSYAMDNWGQGTSVTVSSGGSEGKSSGSGSESKSTGGSDIVMTQSQRFMSTSVGDGVRITCKASQNVRTAVAWYQQKPGQSPKALINLAPNRHTGVPDRFTARGSGTDFTLTISNVQSEDLADYFCLQHWNYPLTFGAGTKLELK heavy 2: EVRLLESGGGLVQPGGSLRLSCAASGFTFSNYAMGWVRQAPGKGLEWVSAISGSGGSTYYADSVKGRFTTSRDDSKNALYLQMNSLRAEDTAVYYCARGGPGWYAADVWGQGTTVTVSS[here human IgG1 constant region with changes without letters] light: DIQMTQSPSSLSASVGDRVTITCRASQSISSYLNWYQQKPGKAPKLLIYAASSLQSGVPSRFSGSGSGTDFTLTISSLQPEDFATYYCQQADLPAFAFGGGTKVEIKRTVAAPSVFIFPPSDEQLKSGTASVVCLLNNFYPREAKVQWKVDNALQSGNSQESVTEQDSKDSTYSLSSTLTLSKADYEKHKVYACEVTHQGLSSPVTKSFNRGEC
19	31	CD98hc.03.002 (2+1 bispecific antibody) (bispecific antibody) heavy 1: EVRLLESGGGLVQPGGSLRLSCAASGFTFSNYAMGWVRQAPGKGLEWVSAISGSGGSTYYADSVKGRFTTSRDDSKNALYLQMNSLRAEDTAVYYCARGGPGWYAADVWGQGTTVTVSSASTKGPSVFPLAPSSKSTSGGTAALGCLVKDYFPEPVTVSWNSGALTSGVHTFPAVLQSSGLYSLSSVVTVPSSSLGTQTYICNVNHKPSNTKVDKKV[here human IgG1 Fc with changes without letters]GGGGSGGGGSGGGGSDVQLVESGGGLVQPGGSRKLSCAASGFTFSTFGMHWVRQAPEKGLEWVAYISGGSTNIYYADTVKGRFTISRDNPKNTLFLQMTSLRSEDTAMYYCARETTLLATNFDYWGQGTTLTVSSGGSEGKSSGSGSESKSTGGSDIQMTQTTSSLSASLGDRVTISCRASQDISNYLNWYQQKPDGTVKLLIYYTSRLHSGVPSRFSGSGSGTDYSLTISNLEQEDIATYFCQQGSTLPRTFGGGTKLEIK heavy 2: EVRLLESGGGLVQPGGSLRLSCAASGFTFSNYAMGWVRQAPGKGLEWVSAISGSGGSTYYADSVKGRFTTSRDDSKNALYLQMNSLRAEDTAVYYCARGGPGWYAADVWGQGTTVTVSS[here human IgG1 constant region with changes without letters] light: DIQMTQSPSSLSASVGDRVTITCRASQSISSYLNWYQQKPGKAPKLLIYAASSLQSGVPSRFSGSGSGTDFTLTISSLQPEDFATYYCQQADLPAFAFGGGTKVEIKRTVAAPSVFIFPPSDEQLKSGTASVVCLLNNFYPREAKVQWKVDNALQSGNSQESVTEQDSKDSTYSLSSTLTLSKADYEKHKVYACEVTHQGLSSPVTKSFNRGEC
